# Results as given in PubChem BioAssay AID1347165 (National Center for Advancing Translational Sciences (NCATS), 2019).
# Several values for one entry are separate records, joined by “and”; a condition that tells them apart may be missing. Equal values may be shown once. Among all 220,000 compounds or so, about 5,700 (2.6%) were called active. This list was built around the results that the source calls inconclusive (neither active nor inactive); the mix of calls is not that of the screen. Calls come from the whole dose curve; as a rule, active = well fitted inhibition curve with a large enough effect; inconclusive = small, poorly fitted or top-dose-only effect; inactive = no such curve, though single readings can be large or run the other way. A potency beside an inconclusive call is a rough fit, not a confirmed value.
# Biological target: Lysine-specific demethylase 5B (Homo sapiens) (UniProt Q9UGL1)
# Assay: Primary screen for KDM5B Histone Demethylases FDH-coupled qHTS; note: nearly all actives have a fitted effect of over 70% in size; for activity change, negative = inhibition: 0% is about no effect
# Details: FDH-coupled NADH fluorescence (FDH is formaldehyde dehydrogenase); activity change, negative = inhibition: at 57.7 µM (top of the series) unless noted
# Summary of the method: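 Here, H3K4me3 peptide (12.5 µM in substrate mix) is demethylated by KDM5BΔAP, 200 nM final, after 10 min compound exposure. Formaldehyde product is coupled through FDH (0.25 U/mL in mix) to NADH fluorescence; 30-min ΔRFU feeds dose-response curves.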
# Potency is the fitted concentration of half-maximal effect; tags give direction and shape of the fitted curve.
# UniProt Q9UGL1, sequence (Q9UGL1 whole entry, looked up): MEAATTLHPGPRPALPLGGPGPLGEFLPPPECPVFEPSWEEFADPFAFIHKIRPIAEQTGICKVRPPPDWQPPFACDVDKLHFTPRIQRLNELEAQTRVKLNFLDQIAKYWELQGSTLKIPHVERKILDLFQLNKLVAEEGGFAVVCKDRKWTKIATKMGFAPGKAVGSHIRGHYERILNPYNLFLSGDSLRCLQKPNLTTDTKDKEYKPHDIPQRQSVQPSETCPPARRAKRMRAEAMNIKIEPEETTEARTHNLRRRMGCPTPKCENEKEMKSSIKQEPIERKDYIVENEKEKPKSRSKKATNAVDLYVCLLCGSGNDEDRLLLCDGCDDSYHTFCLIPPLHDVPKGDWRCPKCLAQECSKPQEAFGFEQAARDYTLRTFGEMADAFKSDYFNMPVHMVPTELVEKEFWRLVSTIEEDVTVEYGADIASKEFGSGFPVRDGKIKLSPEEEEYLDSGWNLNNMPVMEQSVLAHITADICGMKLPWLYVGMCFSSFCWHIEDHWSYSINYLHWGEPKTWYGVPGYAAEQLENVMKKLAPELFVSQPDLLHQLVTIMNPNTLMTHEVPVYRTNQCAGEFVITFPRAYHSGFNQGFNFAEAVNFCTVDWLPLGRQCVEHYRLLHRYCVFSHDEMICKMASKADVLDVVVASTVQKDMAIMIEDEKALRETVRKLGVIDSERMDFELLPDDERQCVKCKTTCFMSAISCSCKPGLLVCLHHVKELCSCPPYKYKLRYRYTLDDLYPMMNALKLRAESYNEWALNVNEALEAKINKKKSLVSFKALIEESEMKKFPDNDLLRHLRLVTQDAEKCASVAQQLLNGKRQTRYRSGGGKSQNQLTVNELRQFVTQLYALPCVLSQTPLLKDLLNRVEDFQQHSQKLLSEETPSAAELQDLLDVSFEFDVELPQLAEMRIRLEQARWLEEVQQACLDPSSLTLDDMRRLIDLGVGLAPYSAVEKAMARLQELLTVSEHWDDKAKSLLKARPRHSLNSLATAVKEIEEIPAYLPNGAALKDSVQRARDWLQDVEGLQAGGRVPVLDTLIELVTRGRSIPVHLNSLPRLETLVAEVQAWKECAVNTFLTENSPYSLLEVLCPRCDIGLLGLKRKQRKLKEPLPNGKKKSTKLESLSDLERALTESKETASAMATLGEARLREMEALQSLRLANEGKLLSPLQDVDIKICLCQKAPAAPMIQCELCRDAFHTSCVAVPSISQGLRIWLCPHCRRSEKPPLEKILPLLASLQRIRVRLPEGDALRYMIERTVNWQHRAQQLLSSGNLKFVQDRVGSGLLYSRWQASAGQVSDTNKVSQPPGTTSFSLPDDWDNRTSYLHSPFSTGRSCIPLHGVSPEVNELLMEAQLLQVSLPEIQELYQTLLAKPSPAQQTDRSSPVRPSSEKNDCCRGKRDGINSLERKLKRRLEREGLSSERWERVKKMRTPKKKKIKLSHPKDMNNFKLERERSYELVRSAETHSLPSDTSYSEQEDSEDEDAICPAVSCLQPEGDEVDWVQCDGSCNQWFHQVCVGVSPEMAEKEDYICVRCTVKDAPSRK
Structure (SMILES),Potency,"activity change, negative = inhibition"
c1ccc(CNc2ncnc3[nH]ncc23)cc1,"inconclusive: 25.1 µM [inhibitor, single point]",
COc1ccc(-c2nc(CCNC(=O)Cc3ccc(F)cc3)cs2)cc1,"inconclusive: 28.2 µM [inhibitor, partial curve, poor fit]",
CCOc1ccccc1C1CC(c2cccc(NS(C)(=O)=O)c2)=NN1C(=O)c1ccco1 (centres undefined),"inconclusive: 39.8 µM [inhibitor, single point]",
Cc1nn2c(c1-c1ccccc1N1CCCC1)N(C(=O)c1cccc(N(C)C)c1)CCC2,"inconclusive: 20 µM [inhibitor, partial curve, poor fit]",
CC(C)CCN1CCNC(=O)C1CC(=O)N(C)Cc1nc2ccccc2[nH]1 (centres undefined),"inconclusive: 25.1 µM [inhibitor, partial curve, poor fit]",
O=C(c1cccc2[nH]ccc12)N1CCC(N2C(=O)C3(CCCCC3)C2c2ccncc2)CC1 (centres undefined),active: 22.4 µM,
O=C(Nc1ccc(C(F)(F)F)cc1)c1ccc2ncsc2c1,"inconclusive: 25.1 µM [inhibitor, partial curve, poor fit]",
O=c1[nH]c(CN2CCCCCCC2)nc2c(Br)cc(Br)cc12,,inactive: -17.2%
NC(=O)c1ccsc1NC(=O)CSc1ccc2ccccc2n1,,inactive: -18.5%
CC(=O)c1ccc(NC(=O)c2cn(C)c(=O)c3ccccc23)cc1,"inconclusive: 2 µM [inhibitor, full curve, poor fit]",
O=C(NCCn1cc(SCC(=O)N2CCCCC2)c2ccccc21)c1cccc(C(F)(F)F)c1,,inactive: 6.97%
COc1cccc(CC(=O)NCc2nnc3ccc(-c4ccccc4)nn23)c1,,inactive: -17.3%
Cc1cc(NC(=O)CN2CCN(C(=O)c3cc(Cl)ccc3F)CC2)no1,,inactive: -11%
Cc1cc(C(=O)N2CCC(CCOc3ccc(F)cc3)C2)c(C)n1Cc1ccc(F)cc1 (centres undefined),"inconclusive: 20 µM [inhibitor, single point]",
O=C(Nc1ccc(C(F)(F)F)cc1)c1nn(C2CCS(=O)(=O)C2)c2c1CCCC2 (centres undefined),,inactive: 4.92%
CCOc1ccc(S(=O)(=O)/C=C2\NCCc3cc(OC)c(OC)cc32)cc1,"inconclusive: 31.6 µM [inhibitor, partial curve, poor fit]",
COc1cccc(CN2C(=O)C3(SCC(=O)N3c3ccc(F)cc3)c3ccccc32)c1 (centres undefined),"inconclusive: 1.78 µM [inhibitor, full curve, poor fit]",
CSc1ccc(C)c(C(=O)Nc2ccc(C)cc2C)c1,,inactive: -3.78%
CN(C)C(=O)c1cc(Br)cn2ccnc12,active: 28.2 µM and active: 35.5 µM,
CN1C(=O)c2ccccc2Sc2ccc(NC(=O)NCc3ccccc3Br)cc21,,inactive: -8.12%
Cc1cc(C(C)(C)C)cc(C)c1S(=O)(=O)N1CCN(C(C)c2nc3ccccc3c(=O)[nH]2)CC1 (centres undefined),,inactive: 7.47%
CC(C)C(NC(=O)CSc1cc(Cl)ccc1Cl)c1ccc2c(c1)OCCCO2 (centres undefined),,inactive: 8.24%
Cc1nc2sc(C)c(C)n2c(=O)c1S(=O)(=O)NCCc1ccc(Cl)cc1,"inconclusive: 1.78 µM [inhibitor, full curve, poor fit]",

Structure (SMILES),Potency,"activity change, negative = inhibition"
O=C(c1cn2ccccc2n1)N1C[C@@H](CO)[C@H](c2ccncc2)C1,"inconclusive: 14.1 µM [inhibitor, partial curve]",
CC(=O)N(C1CC1)C1CCOC2(CCN(C(=O)c3ccc4nc[nH]c4c3)CC2)C1 (centres undefined),,inactive: -21%
CC1=C(C(=O)OCCc2ccccc2)C(c2cccc(O)c2)C2=C(CCCC2=O)N1 (centres undefined),"inconclusive: 31.6 µM [inhibitor, single point]",
COCCCNc1nc2c([S+](=O)([O-])c3ccncc3)nnn2c2ccccc12,"inconclusive: 44.7 µM [inhibitor, full curve, poor fit]",
COc1cccc(C(O)c2nc(C(=O)N3CCN(c4ccccn4)CC3)c(C)o2)c1 (centres undefined),active: 25.1 µM,
CCOC(=O)c1ccc(N2C(=O)c3n[nH]c(-c4ccco4)c3C2c2cccc(F)c2)cc1 (centres undefined),"inconclusive: 28.2 µM [inhibitor, partial curve, poor fit]",
c1ccc(-c2ccnc3nc(C4CCC4)nn23)cc1,active: 28.2 µM,
COc1ccc(C2Oc3c(C(C)(C)C)cc(C(C)=O)c4c(OC(C)=O)c(C(C)(C)C)cc2c34)cc1OC (centres undefined),,inactive: 10.4%
CCc1ccccc1N(C)C(=O)c1cc2c(s1)-c1c(C)cccc1OC2,"inconclusive: 35.5 µM [inhibitor, partial curve, poor fit]",
O=C(Cn1ncc2c3ccccc3n(Cc3ccccc3)c2c1=O)NCc1ccccc1,"inconclusive: 28.2 µM [inhibitor, partial curve, poor fit]",
O=C(NCCOc1ccc2ccccc2c1)c1n[nH]c(=O)c2ccccc12,,inactive: 8.42%
COc1cc(-c2ccnc3nc(Cc4ccc(F)cc4)nn23)cc(OC)c1OC,"inconclusive: 15.8 µM [inhibitor, partial curve, poor fit]",
O=C(COC(=O)c1cc2ccccc2[nH]1)c1ccc2ccccc2c1,,inactive: 10.9%
Cc1cc(C)n(CC(=O)N2CCCC3(C2)Nc2cccnc2NC3=NC2CCCC2)n1 (centres undefined),active: 28.2 µM,
CC1(C)CCc2cc3c4c(/c(=N\O)oc3cc2O1)CCCC4,"inconclusive: 31.6 µM [inhibitor, single point]",
CCc1cc(N(C)Cc2noc(C3CC3)n2)n2nc(C)c(C)c2n1,,inactive: 13.3%
C1CC(COCCc2noc(C3CNC3)n2)CCO1,"inconclusive: 39.8 µM [inhibitor, partial curve, poor fit]",
CCn1nc(CC(C)C)cc1C(=O)N1CCN(CCn2cccc2)CC1,"inconclusive: 15.8 µM [inhibitor, partial curve]",
COc1ccc(C2(C(=O)N3c4ccccc4CC3c3noc(C4CCOCC4)n3)CC2)cc1 (centres undefined),,inactive: 4.25%
O=C(NCCN1CCCC1)C1Cn2cccc2C(=O)N1Cc1cccnc1 (centres undefined),"inconclusive: 22.4 µM [inhibitor, partial curve, poor fit]",
COc1ccc(-c2c(C)oc3cc(OCC(=O)Nc4ccc(OC)cc4OC)ccc3c2=O)cc1,,inactive: 2.77%
CN1CCCCCC(O)c2cc(C(=O)NCc3cccc(C(F)(F)F)c3)ccc21 (centres undefined),"inconclusive: 39.8 µM [inhibitor, single point]",
CCCN(C)c1ccc(/C=N/NC(=S)Nc2cccc(C)c2)cc1,"inconclusive: 8.91 µM [inhibitor, partial curve, poor fit]",

Structure (SMILES),Potency,"activity change, negative = inhibition"
O=C(c1nnn2cc(-c3ccc(F)cc3)[nH]c(=O)c12)N1CCCCC1,"inconclusive: 31.6 µM [inhibitor, partial curve, poor fit]",
CCN(CC(=O)NC)S(=O)(=O)N1CCCCCC1,,inactive: 20%
CC(C)(C)c1ccc(C(=O)Nc2ccc3nc(SCC(=O)N4CCCC4)sc3c2)cc1,"inconclusive: 39.8 µM [inhibitor, partial curve, poor fit]",
O=C1[C@@H]2C[C@@H](CN2C2COC2)Oc2ccccc2N1Cc1ccc(OC(F)(F)F)cc1,,inactive: 19.6% [at 86.2 µM]
COc1ccc(CCNC(=O)c2cc3n(n2)CC(c2ccc4c(c2)OCO4)OC3)cc1OC (centres undefined),active: 28.2 µM,
CCOc1ccccc1NC(=O)Cn1c(=O)n(Cc2ccco2)c(=O)c2cccnc21,,inconclusive: -35.8% [inhibitor]
Cc1cc(Cc2ccccc2)c(C)cn1,"inconclusive: 39.8 µM [inhibitor, partial curve, poor fit]",
CCc1ccc(-n2nnc(C(=O)Nc3nccs3)c2C)cc1,,inactive: 11.7%
CCn1c2c(c(=N)c3ccccc31)CCC2,"inconclusive: 17.8 µM [inhibitor, single point]",
O=C(c1ccc(N2CCC(O)CC2)nc1)N1CCC(N2CCOCC2)CC1,"inconclusive: 25.1 µM [inhibitor, partial curve]",
COc1ccc(CCNC(=O)c2cc3cccc4c3n2CC(C)S4)c(OC)c1OC (centres undefined),"inconclusive: 35.5 µM [inhibitor, partial curve, poor fit]",
CC(C)c1ccc(S(=O)(=O)Nc2cc3c(cc2NCc2ccccc2)n(C)c(=O)n3C)cc1,"inconclusive: 31.6 µM [inhibitor, partial curve, poor fit]",
CC(=O)N1CCC(C2CCN(Cc3ccccc3C)C2)CC1 (centres undefined),"inconclusive: 17.8 µM [inhibitor, single point]",
CN(C)C[C@H]1O[C@@H](CO)[C@@H](O)[C@H]1N1CCN(c2ncccn2)CC1,,inactive: -10.2%
CSc1ccc(NC(=O)c2cc3c(N4CCSCC4)nc(C)cn3n2)cc1,,inactive: 228%
Cc1coc2cc3o/c(=N/O)c(Cc4ccccc4)c(C)c3cc12,,inactive: 14.5%
N#C/C(=C/c1ccc(OC(F)(F)F)cc1)c1nc2ccccc2[nH]1,"inconclusive: 39.8 µM [inhibitor, single point]",
Cc1cc(C)cc(N(CC(=O)Nc2ccc(C(F)(F)F)cc2)S(=O)(=O)c2c(C)[nH]c(=O)[nH]c2=O)c1,,inactive: -13%
NC(=O)c1cc2c(nc1CC1CC(=O)N(c3ccccc3)C1)CCC2 (centres undefined),"inconclusive: 39.8 µM [inhibitor, partial curve, poor fit]",
CCC(C)NC(=O)COC(=O)c1nn(-c2ccccc2)cc1OC (centres undefined),"inconclusive: 25.1 µM [inhibitor, single point]",
COc1ccc(-c2cc(C(=O)Oc3ccc(Cl)cc3)c3ccccc3n2)cc1,"inconclusive: 31.6 µM [inhibitor, partial curve, poor fit]",
CN(CC(=O)Nc1ccc(Cl)cc1)Cc1cc(F)cc2c1OCOC2,,inactive: 4.19%
COc1cccc(/C=C/c2nc(C#N)c(N3CCN(Cc4ccccc4)CC3)o2)c1,"inconclusive: 4.47 µM [inhibitor, full curve, poor fit]",
